# Laboratory results reported in PubChem BioAssay AID463173 (ICCB-Longwood Screening Facility, Harvard Medical School, 2010).
# The whole screen tested about 52,000 compounds, of which about 1,700 (3.3%) were called active. Cut-off read from the data, not from the text of the source: active = survival mostly below about 52% (no sharp cut-off); inactive = mostly above about 56%. Some of the results follow.
# Tested on: Wild type
# Assay: growth inhibition of S. aureus wild type versus tarO mutant, primary screen, teichoic acid synthesis inhibitors, RN4220, OD600 (AID 463173)
# Conditions: S. aureus RN4220 wild type/DeltatarO growth, OD600, 18 h, active compounds read low, screened at 18.75 µg/mL (by protocol)
row,SMILES,survival
1,Cc1ccc(N2C(=O)CS(=O)(=O)C23C(=O)N(Cc2ccc(Cl)cc2)c2ccccc23)cc1C (stereo unspecified),inactive: 68%
2,COCCn1c(SCC(=O)c2ccc(F)cc2)nc2cc(C(=O)NC3CCCC3)ccc2c1=O,inactive: 73%
3,O=C1CC(c2ccc(F)cc2F)c2cc3c(cc2N1)OCO3 (stereo unspecified),inactive: 134%
4,COc1ccc(Cl)cc1NC(=O)C1CCN(S(=O)(=O)c2ccc(F)cc2)CC1,inactive: 81%
5,COc1ccc(OC)c(NC(=O)Cn2c(=O)n(-c3ccc(Cl)cc3)c(=O)c3c(C)c(C)sc32)c1,inactive: 72%
6,Cc1ccc(N2C(=O)CCSC23C(=O)N(Cc2ccc(F)cc2)c2ccccc23)cc1 (stereo unspecified),inactive: 72%
7,CCOc1cccc(C(=O)N(Cc2ccc(F)cc2)Cc2ccco2)c1,inactive: 87%
8,CC1CCN(C(=O)CSc2nnc(NC(=O)Nc3ccccc3)s2)CC1,inactive: 89%
9,Cc1cccc(CC(=O)Nc2c(C(=O)Nc3cccc(F)c3)oc3ccccc23)c1,inactive: 48%
10,CCOC(=O)C1CCN(C(=O)Cn2ncc3c4ccccc4n(Cc4ccccc4)c3c2=O)CC1,inactive: 82%
11,Cc1ccc2c(c1)N(C(=O)CCC(=O)NCc1cccs1)CC(C)O2 (stereo unspecified),inactive: 83%
12,N#CSc1ccc(NCCO)cc1C(F)(F)F,inactive: 106%
13,COC(=O)c1ccccc1NC(=O)Cn1c(CCC(=O)O)ccc1-c1ccc(C)cc1,inactive: 59%
14,CS(=O)(=O)c1ncc(Cl)c(C(=O)Nc2c(C(=O)c3ccc(Cl)cc3)oc3ccccc23)n1,inactive: 115%
15,COc1cccc(-c2nc3c(C#N)c[nH]n3c2NC2CCC(C)CC2)c1 (stereo unspecified),inactive: 40%
16,O=C(NCc1ccccc1)c1ncn[nH]1,inactive: 94%
17,COc1ccc(CCNC(=O)c2ccc(Cn3c(SCC(=O)NCCC(C)C)nc4cc5c(cc4c3=O)OCO5)cc2)cc1OC,inactive: 129%
18,CC1=C(C(=O)Nc2cccnc2)C(c2ccccc2Cl)n2nc(-c3ccccc3)nc2N1 (stereo unspecified),inactive: 64%
19,Cc1cc(NC(=O)CSc2ncc(C(=O)Nc3ccc(C)c(C)c3)c(=O)n2C)no1,inactive: 73%

row,SMILES,survival
1,Cc1ccc(NC(=O)CCSc2nc(-c3ccc4c(c3)OCO4)cc(C(F)(F)F)n2)c(C)c1,inactive: 72%
2,CCOc1ccccc1C(=O)NCc1ccc2c(c1)CCN2C(=O)c1ccccc1,inactive: 81%
3,Cc1cccc(Nc2nc3c(S(=O)(=O)c4ccc(Br)cc4)nnn3c3ccsc23)c1C,inactive: 62%
4,Cc1cc(C)c2oc(-c3cccc(NC(=O)COc4ccccc4Cl)c3C)nc2c1,inactive: 58%
5,Clc1cccc(-n2ncc3c(NCCCN4CCOCC4)ncnc32)c1,inactive: 75%
6,O=C(Nc1ccc2oc(-c3ccc4ccccc4c3)nc2c1)c1cc(Cl)ccc1Cl,inactive: 108%
7,CC(=O)c1c(C)n(-c2ccc(C)cc2)c2ccc(OC(=O)COc3ccccc3)cc12,inactive: 67%
8,Cc1ccc2nc(CN3CCN(S(=O)(=O)c4ccc(C)c(C)c4)CC3)oc2c1,inactive: 82%
9,CN(C)c1ccc(CNC(=O)C2CCN(S(=O)(=O)c3ccc4[nH]c(=O)ccc4c3)CC2)cc1,inactive: 78%
10,COc1cc(-c2ccno2)ccc1S(=O)(=O)N1CCN(c2ccccc2)CC1,inactive: 71%
11,CC(C)C(=O)Nc1nnc(SCc2cc(=O)n3ccccc3n2)s1,inactive: 117%
12,Cc1ccc(C2CC(=O)n3nc(-c4cccc(C)c4)nc3S2)cc1 (stereo unspecified),inactive: 90%
13,CC(C)C(=O)Nc1cccc(C(=O)Nc2nnc(C(F)(F)F)s2)c1,inactive: 52%
14,Cc1ccc(NC(=O)CN(c2ccc(C)cc2)S(=O)(=O)c2cccc3nonc23)cc1,inactive: 77%
15,CCOc1ccccc1NC(=O)CCc1c(C)nc2cc(-c3ccccc3)nn2c1C,inactive: 57%
16,Cc1cccc(NC(=O)c2c(NC(=O)c3ccco3)sc3c2CCC(C)C3)c1 (stereo unspecified),inactive: 73%
17,COc1ccccc1N(CC(N)=O)S(=O)(=O)c1ccccc1,inactive: 96%
18,O=c1[nH]cc(N=Cc2cccnc2)c(=O)[nH]1,inactive: 112%
19,Cc1c2cnn(-c3ccccc3)c(=O)c2c(C)n1C(C)C(=O)NCc1cccc(Br)c1 (stereo unspecified),inactive: 71%

row,SMILES,survival
1,CCOCCCn1c(=N)c(C(=O)NCc2ccccc2)cc2c(=O)n3ccccc3nc21,inactive: 68%
2,COc1cccc(NC(=O)Cn2c(=O)n(CCc3cccc(C)c3)c(=O)c3ccccc32)c1,inactive: 82%
3,CCCN(CCC)C(=O)c1nn(C)c2c1CSc1ccccc1-2,inactive: 108%
4,COc1cccc(CNC(=O)c2ccc3c(c2)nc2n3CCC(C)C2)c1 (stereo unspecified),inactive: 59%
5,COc1ccc(-n2nc(-c3ccc(C)cc3)c3cnc4cc(F)c(F)cc4c32)cc1,inactive: 85%
6,Cc1ccc(NC(=O)Cn2nc(-c3ccccc3)nc(Cc3ccccc3)c2=O)cc1,inactive: 68%
7,CCc1nc2nc(C)c(NS(=O)(=O)c3ccc(F)c(C)c3)c(=O)n2[nH]1,inactive: 121%
8,Cc1ccccc1C(=O)Nc1ccccc1-c1nc(-c2ccccc2)no1,inactive: 95%
9,Cc1nc(-c2cccc(F)c2)sc1CCNC(=O)C(=O)Nc1ccc2c(c1)OCCO2,inactive: 68%
10,Cc1ccc(NC(=O)CSc2nc3ccccc3n2CC(=O)N(C)C2CCCCC2)cc1C,inactive: 78%
11,CC(C(=O)Nc1ccccc1)n1nnc2sc3c(c2c1=O)CCCC3 (stereo unspecified),inactive: 85%
12,CCc1nc2ccc(NC(C)=O)cc2c(=O)n1Cc1ccccc1,inactive: 94%
13,CCOc1ccc2nc(N3CCCC(C(=O)NCCc4ccc(C)cc4)C3)sc2c1 (stereo unspecified),inactive: 76%
14,Cc1cccc(Cn2c(=O)n(Cc3ccccc3)c(=O)c3sc4ccccc4c32)c1,inactive: 83%
15,CCCCn1c(CNC(=O)C23CC4CC(CC(C4)C2)C3)nnc1SCC(=O)Nc1ccc(F)cc1,inactive: 68%
16,Cc1cccc(NC(=O)Nc2nnc(N3CCCC3)s2)c1,inactive: 98%
17,Cc1ccc(NC(=O)C2CCCN2S(=O)(=O)c2ccc3nc(-c4ccccc4)[nH]c3c2)cc1C (stereo unspecified),inactive: 96%
18,Cc1cc(C(=O)NCc2ccccc2)c2c(C)nn(-c3cccc(Cl)c3C)c2n1,inactive: 159%
